Test results from PubChem BioAssay (NCI).
Several values for one entry are separate records, joined by “and”; a condition that tells them apart may be missing. Identical values can stand only once. Counter-ions that a name gives are not always drawn.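 Exposure lasted 48 hours, with cells grown in 96-well plates and compounds tested at five concentrations. GI50 = concentration required for 50% inhibition of growth. TGI denotes the concentration required for complete inhibition of growth.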 Numbered stars: 1 amine (or outer) side, 2 acyl side, 3 side chain; on linkers, the order of the positions; unused ones are H or OH. Square brackets hold non-standard residues; d marks the D form. Peptide text beside a SMILES is read from it. * marks the point of attachment. X27 = CC(=O)N(C)SCC(N[*:1])C(=O)[*:2]; X43 = CC(=O)N(C)SCC(N*)/C(O)=N\O; Cbz = O=C(OCc1ccccc1)*; Boc = CC(C)(C)OC(=O)*; Tfa = O=C(C(F)(F)F)*; Bz = O=C(c1ccccc1)*; Bn = c1ccc(C*)cc1; For = O=C*

Tested on: NCI-H322M lung
Assay: NCI tumour cell line growth inhibition, 48 h

| Compound | TGI | GI50 |
| --- | --- | --- |
| O=P1(O)C=CC2(CCCC2)O1 | > 100 µM |  |
| CC(C)[C@]12O[C@H]1[C@@H]1O[C@]13[C@]1(O[C@H]1C[C@H]1C4=C(CC[C@@]13C)C(=O)OC4)[C@@H]2O |  | 0.0307 µM |
| COC(=O)C1=C(c2ccc(OC)c(OC)c2)OC(c2ccc(OC)c(OC)c2)C1 (centres undefined) | > 100 µM |  |
| CC12CCC3C(CCC4Cc5[nH]c6ccccc6c5CC43C)C1CCC2O (centres undefined) | > 100 µM | 4.56 µM |
| N#Cc1c(N2CCCC2)nsc1NCc1ccccc1 | > 100 µM |  |
| CN(C)CCOc1cccc2c1C(=O)c1ccccc1C2=O | 34.5 µM |  |
| Cc1cc2nc(C(C)C(=O)c3ccc(Cl)cc3)c(=O)[nH]c2cc1C (centres undefined) | > 100 µM |  |
| CCOC(=O)C1(C(N)=O)C(=O)c2ccncc2C1=O (centres undefined) | > 100 µM |  |
| Cc1ccc(S(=O)(=O)c2c(N)c3nc4ccccc4n3c3nc4ccccc4nc23)cc1 | > 100 µM |  |
| Cn1cc(-c2ccc3c(Nc4cccc(NC(=O)Nc5cccc(F)c5)c4)ncnc3c2)cn1 | 10.5 µM | 3.03 µM |
| CC1(C)[C@H](C(=O)O)N2C(=O)[C@@H](NS(=O)(=O)c3ccc([N+](=O)[O-])cc3)[C@H]2S1(=O)=O | > 100 µM |  |
| CC(C)(C)OC(=O)NCCCCC(N)C(N)=O (centres undefined) | > 100 µM |  |
| Cc1cc(N(CCC#N)CCC#N)ccc1/C=C1N=C(/C=C\c2ccccc2)OC\1=O | > 100 µM |  |
| CC(NC(=O)C(Cc1ccc(OC(=O)c2ccccc2)cc1)NC(=O)OC(C)(C)C)C(=O)NC(Cc1ccccc1)C(=O)NCC(N)=O (centres undefined) (Boc-Y(Bz)AFG-NH2; configuration not given here) | 35.1 µM |  |
| Cc1ccccc1C(=O)c1c(O)c2c(c(O)c1Br)CCCC2 | 42.7 µM |  |
| Cc1ccc2c(c1)C(C)Cc1c(ncnc1-n1cnc3ccccc31)N2C (centres undefined) | 24 µM | 0.647 µM |
| COc1ccc(OC)c(/C=N/NC(=O)Cc2csc3nc(-c4ccc(Br)cc4)cn23)c1 | 61.9 µM | 14.7 µM |
| CC(C)(C)NNC(=O)/C(=C/c1ccc([N+](=O)[O-])cc1)NC(=O)c1ccccc1 | > 100 µM |  |
| CO/N=C(\C)c1ccc(Nc2c3ccccc3nc3occc23)cc1 | 18.6 µM |  |
| COc1cc(C=O)ccc1Oc1nnnn1-c1ccccc1 | > 100 µM |  |
| Cc1cccc(NC(=O)CCc2ccc(N3C(N)=NC(N)=NC3(C)C)cc2)c1 | > 100 µM | 3.62 µM |
| O=C(O)CC(NC(=O)C(F)(F)F)C(=O)NC(Cc1ccc(O)cc1)C(=O)O (stereo not drawn) (Tfa-Asp-Tyr-OH; configuration not given here) | > 50 µM |  |
| C=C1C(=O)O[C@H]2[C@H]1CC/C(CNC(=O)Cc1c[nH]c3ccccc13)=C\CC[C@@]1(C)O[C@@H]21 | 27.3 µM | 13.5 µM |
| CC(=O)NCCc1c2c(c3nccc4c3c1Nc1ccccc1-4)OCS2 | 14.8 µM | 3.28 µM |
| O=C(O)CCNc1ccccc1C(=O)O | > 100 µM |  |

| Compound | TGI | GI50 |
| --- | --- | --- |
| CC(=O)OC1C(C)OC(Oc2c(C)c3c4c(c2O)[C@@H](C)CC[C@@H]4[C@@H](C)C[C@H]3C=C(C)C)C(O)C1O (some centres undefined) | 4.54 µM | 2.02 µM |
| CC(=N\N)/C(C)=N/N=C(C)/C(C)=N/N=C(C)/C(C)=N/N=C(C)/C(C)=N/N | > 100 µM |  |
| CC(=O)Nc1ccc(Nc2cc(=O)[nH]c(=O)[nH]2)cc1 | > 100 µM |  |
| COc1cc(C2SCC(=O)N2c2cc(Cl)c(Cl)cc2Cl)cc(OC)c1OC (centres undefined) | > 100 µM |  |
| CC1=NCCN=C(C)C1N=Nc1ccc2nc(C)[nH]c2c1 | 34.9 µM |  |
| O=C(O)c1ccccc1NC(c1ccccc1)c1ccc2cccnc2c1O (centres undefined) | > 76.9 µM |  |
| CC(=O)N(C)SCC(NC(=O)C(Cc1ccccc1)NC(=O)OCc1ccccc1)C(=O)NC(Cc1ccccc1)C(=O)NC(Cc1cn(C=O)c2ccccc12)C(=O)NC(CCCCNC(=O)OCc1ccccc1)C(=O)NC(C(=O)NC(CSN(C)C(C)=O)/C(O)=N\O)C(C)OCc1ccccc1 (centres undefined) (Cbz-F[X27]FW(For)K(Cbz)T(Bn)-X43; configuration not given here) | > 100 µM |  |
| CCC(C#N)(c1ccccc1)N(CCc1ccccc1)C(=O)c1ccccc1 (centres undefined) | > 100 µM |  |
| FC(F)(F)c1nc(N2CCCC2)ncc1-c1nnnn1-c1ccc(Cl)cc1 | > 100 µM | 41.2 µM |
| CC(=O)OC1=c2ccccc2=C(O)C2C1C=NN2C(C)=O (centres undefined) | > 100 µM |  |
| CCOC(=O)c1c2c3c(cccc3[nH]c1=O)Sc1ncccc1-2 | > 100 µM |  |
| CCOC(=O)c1cnn2c1ncc1c(=O)n(NC(N)=O)ccc12 | > 100 µM |  |
| CCCCCCCCCCCCNC(C)=O | 58.3 µM |  |
| CN1C(=O)CC(c2cccc(C3CC(=O)N(C)C3=O)n2)C1=O (centres undefined) | > 100 µM |  |
| COC(=O)CCc1cc(OC)c(O)c(C(Cc2ccc(OC)c(OC)c2)C(=O)OC)c1 (centres undefined) | > 100 µM |  |
| Clc1ncnc(Cl)c1Cl | > 100 µM |  |
| Nc1ncnc2c1ncn2C1OC(COP(=O)(O)O)C(O)C1O (centres undefined) | > 50 µM |  |
| Nc1sc2c(c1C(=O)c1ccc(Cl)c(Cl)c1)CCCC2 | > 100 µM |  |
| O=C(Nc1c(O)[nH]c(=S)[nH]c1=O)c1ccccc1F | > 100 µM |  |
| COc1ccc2oc(=O)cc(C(c3ccc[nH]3)c3ccc[nH]3)c2c1 | 16 µM | 0.118 µM |
| CCOc1ccc2nc(-c3ccc(O)cc3)sc2c1 | > 100 µM |  |
| CN(C)c1ccc2c(=O)c3ccccc3oc2n1 | > 100 µM |  |
| COC(=O)[C@@]12C(=O)C=CC(=O)[C@@H]1C1C(=CC2COC(C)=O)O[C@@H]2OC3(CCCCC3)O[C@H]12 (some centres undefined) | 31.6 µM |  |
| CC(C)(C)c1cc(CC2C(=O)c3ccccc3C2=O)cc(C(C)(C)C)c1O | 10.8 µM |  |
| CCOC(=O)NC(Nc1ncccn1)(C(F)(F)F)C(F)(F)F | > 100 µM |  |

| Compound | TGI | GI50 |
| --- | --- | --- |
| Nc1cc2c3c(c1)Oc1cc(N)cc4c1C3c1c(cc(N)cc1O4)O2 | > 80.6 µM |  |
| CCOC(=O)Nc1cc2nnc(-c3ccccc3)nc2c(N)n1 | > 100 µM |  |
| COc1ccc2nc3cc(Cl)ccc3c(NCCCN(Cc3cc(OC)c(OC)c(OC)c3)Cc3cc(OC)c(OC)c(OC)c3)c2c1 | 23.5 µM |  |
| O=[N+]([O-])c1nc(-c2ccccn2)[nH]c1[N+](=O)[O-] | > 100 µM |  |
| Cc1ccc(NC(=O)c2cc3cc(N=Nc4ccc(Br)cc4)ccc3oc2=O)cc1 | > 100 µM |  |
| C/C(=N\NC(=O)c1sc(=S)n(C)c1N)c1cc2ccccc2o1 | 87.1 µM | 15.2 µM |
| COc1cc(/C=C/c2ccncc2)cc(OC)c1OC | > 100 µM |  |
| O=C1[C@@H]2C(c3ccccc3Br)=NO[C@@H]2C(=O)N1c1ccc(Cc2ccc(N3C(=O)[C@H]4C(c5ccccc5Br)=NO[C@H]4C3=O)cc2)cc1 | > 100 µM |  |
| COc1cc2c(/C=C3/C(=O)N(C)c4ccccc43)c(Cl)[nH]c2cc1C | 29.5 µM |  |
| Cc1c2cc[n+](C)cc2c(C)c2c1sc1ccccc12 | 7.47 µM |  |
| Cc1ccccc1NC(=O)C(=O)C(C#N)c1ccc(Cl)cc1 (centres undefined) | > 100 µM |  |
| COc1cc2c(cc1O)CC[C@@H]1[C@@H]2CC[C@]2(C)[C@@H](NCCN(C)C)CC[C@@H]12 | 1.06 µM | 0.395 µM |
| Cc1ccc(C2=Nc3cc(C)c(Cl)cc3S(=O)(=O)NN2)cc1 | > 100 µM |  |
| Cc1c(C#N)c2nnn(-c3ccc(Cl)cc3)c(=O)n2c1-c1ccccc1 | > 86.2 µM |  |
| COc1c(C=O)c2c(c(OC)c1OC)-c1ccc(OC)c(=O)cc1[C@@H](NC(C)=O)CC2 | 9.89 µM |  |
| CN(Cc1cnc2nc(N)nc(N)c2n1)c1ccc(C(=O)NC(CCC(=O)O)C(=O)O)cc1C(F)(F)F (centres undefined) | > 100 µM |  |
| COc1cc(-c2cn(S(=O)(=O)c3ccc(C)cc3)c3ccccc23)nc(-c2cn(S(=O)(=O)c3ccc(C)cc3)c3ccccc23)n1 | > 100 µM |  |
| O=c1sc2c(s1)SSSSS2 | > 50 µM |  |
| O=C1C(Cl)=C(Nc2cccc(Cl)c2)C(=O)N1Cc1ccccc1 | 36.4 µM | 16.7 µM |
| Nc1ccc(S(=O)(=O)Nc2nnc(S(N)(=O)=O)s2)cc1 | > 100 µM |  |
| O=C(/C=C/c1ccc(OCCCOc2ccc(/C=C/C(=O)c3ccccc3)cc2)cc1)c1ccccc1 | > 100 µM |  |
| NC(=O)c1nnc2ccc(F)cc2c1N | > 100 µM |  |
| OCC1OC(n2nc(-c3ccccc3)nc2-c2cnccn2)C(O)C(O)C1O (centres undefined) | > 100 µM |  |
| C=C(C)C(=O)O[C@H]1C/C(CO)=C/CCC(=C)C(OC(C)=O)[C@H]2OC(=O)C(=C)[C@H]12 (some centres undefined) | > 100 µM |  |
| Clc1ccc(CSC(Cn2ccnc2)c2ccc(Cl)cc2Cl)cc1 (centres undefined) | 5.75 µM | 1.99 µM |

| Compound | TGI | GI50 |
| --- | --- | --- |
| CC(=O)ON(C(C)=O)c1ccc(-c2nc3ccccc3s2)cc1 | > 100 µM |  |
| CN=C(N)N/N=C(\C)c1ccc2c(c1)Cc1cc(/C(C)=N/NC(N)=NC)ccc1-2 | 4.81 µM | 1.98 µM |
| OC1[C@H]([C@H]2CCCC[C@@H]2O)CCC[C@@H]1[C@@H]1CCCC[C@H]1O (some centres undefined) | > 100 µM |  |
| CC[C@@]1(N(C)C)C(=O)OCc2c1cc1n(c2=O)Cc2cc3ccccc3nc2-1 | > 100 µM |  |
| Cc1ccc2c3c1O[C@H]1c4[nH]c5ccccc5c4C[C@@]4(O)[C@@H](C2)N(C)CC[C@]314 | 29.4 µM |  |
| CCS(=O)(=O)N1CCC(C(C)n2c(C)c(C(=O)NCc3c(OC)cc(C)[nH]c3=O)c3ccccc32)CC1 (centres undefined) | > 100 µM | > 100 µM |
| CC1(C)N=C(N)N=C(N)N1c1cccc(CCCCc2cccc(S(=O)(=O)F)c2)c1 | > 100 µM | 5.72 µM |
| COc1ccc(-c2cc(-c3cc(Cl)ccc3Cl)nc3n[nH]c(N)c23)cc1 | > 100 µM | 50.3 µM |
| CCOC(=O)CN1C(=O)c2c(c(C)n(-c3ccccc3)c2C)C1=O | > 100 µM |  |
| C=CCn1c(=O)c2ccccc2[n+]2c(C)c(C(=O)OCC)sc12 | > 100 µM |  |
| CC1(C)CC(=O)C(CCC(=O)/C=C/c2ccccc2)C(=O)C1 | > 100 µM |  |
| Cc1c(N2CCCC2)cc2c(c1NC(=O)c1ccccc1Cl)C(C)(C)CC2(C)C | 27.7 µM |  |
| ON/N=C/c1cc2c(cc1Br)OCO2 | > 386 µM |  |
| CCCCC[C@H](O)/C=C/[C@@H]1[C@@H](C/C=C\CCCC(=O)O)[C@@H](O)C[C@H]1O | > 100 µM | > 100 µM |
| O=C(O)C/C(=C\c1ccco1)C(=O)O | > 100 µM |  |
| CCOC(=O)c1c2c(c(O)c3ccccc3c(O)n(Cc3ccc(OC)cc3)c1C)C(=O)C=CC2=O | > 100 µM | > 100 µM |
| O=C(CN1CCN(Cc2ccccc2)CC1)c1ccc2[nH]c(=O)oc2c1 | > 100 µM |  |
| CCN(CC)CCOCC[C@H]1CC[C@H]2[C@@H]3[C@H](C)Cc4cc(OS(N)(=O)=O)ccc4[C@H]3CC[C@]12C | 5.74 µM | 1.96 µM |
| CCCCCC(C)(C)CCC(=O)OC1OC(COC2OC(COC3OC(CO)C(O)C(O)C3O)C(O)C(O)C2O)C(O)C(O)C1O (centres undefined) | > 100 µM |  |
| COc1cc(Cc2cc3c(c(C(=O)O)c2Br)OCO3)cc(OC)c1OC | > 100 µM |  |
| CCNC(C)Cc1ccccc1 (centres undefined) | > 100 µM |  |
| CCN1CCN(Cc2ccc(-c3cc4c(N[C@H](C)c5ccccc5)ncnc4[nH]3)cc2)CC1 | 15.1 µM and > 10 µM | 0.0633 µM and 0.163 µM |
